Results reported in the antibiotic and cytotoxicity screens of Wong et al. (2023).
The other results are listed elsewhere or left out.

Columns and labels:
[1] = test system: HSkMC (human skeletal muscle cells); assay: cytotoxicity call (relative viability < 0.9); details: 10 µM
[2] = test system: HepG2; assay: cytotoxicity call (relative viability < 0.9); details: 10 µM
[3] = test system: S. aureus RN4220; assay: growth inhibition call (relative growth <= 0.2); details: 50 µM

COc1ccc(NC(=O)Nc2cccc3c2O[C@H](CN(C)CC2CCCCC2)[C@H](C)CN([C@H](C)CO)C3=O)cc1
inactive: cytotoxicity call [1] | cytotoxicity call [2] | growth inhibition call [3]

COc1ccc(S(=O)(=O)Nc2ccc3c(c2)CC(=O)N([C@H](C)CO)C[C@H](C)[C@@H](CN(C)S(=O)(=O)c2ccc(OC)cc2)O3)cc1
inactive: cytotoxicity call [1] | cytotoxicity call [2] | growth inhibition call [3]

COc1cccc(NC(=O)N[C@@H]2CC[C@@H](CC(=O)N3CCN(C)CC3)O[C@H]2CO)c1
inactive: cytotoxicity call [1] | cytotoxicity call [2] | growth inhibition call [3]
